The term viability, T/C denotes the result in the treated group divided by that in the control group, in per cent. As a reminder, the IC50 is the concentration needed to halve the response being measured.

Among the data in PubChem BioAssay AID1963449 (Molecular Pharmacology Branch, DTP, NCI, 2024) are viability, T/C and IC50 values, retold here.

A number of entries come with more than one value. They are shown here; other results are not. An entry can have further records. Values that stand side by side repeat one measurement (runs, samples, wells, individuals or studies). Where only a bound is given, the exact number is not on record here.

The test system of this test is 596521-263-R-J1-PDC complex spheroid growth. In words: Anticancer human tumor 596521-263-R-J1-PDC patient-derived soft tissue sarcoma cell line growth inhibition [Asc]. To be noted: for viability, T/C: stronger effect = lower value; for IC50: compound alone. How it is done:
Multicellular complex tumor spheroid response to apoptosis pathway targeting inhibitors Alrizomadlin, Pelcitoclax, and Dasminapant in combination with a variety of drugs and investigational agents in selected tumor cell lines
The MDM2 inhibitor alrizomadlin, the Bcl-2/Bcl-xL inhibitor pelcitoclax, and the IAPs inhibitor dasminapant were evaluated both individually and in combination with standard of care and investigational anticancer small molecules within a complex spheroid model of solid tumors. . Complex spheroids include a stromal component modeled by human endothelial cells (HUVEC) and fibroblasts modeled by human mesenchymal stem cells (MSCs). The concentration ranges selected for each drug and investigational agent were based upon clinically achievable concentrations if the clinical Cmax of the agent was known.
Compounds. The drugs and investigational agents: alrizomadlin (APG-115; NSC831270), pelcitoclax (APG-1252; NSC835773), dasminapant (APG-1387;NSC834197), TAK-243 (NSC785004), copanlisib (NSC809693), olaparib (NSC753686), talazoparib (NSC767125), cobimetinib (NSC 768068), eltanexor (KPT-8602, NSC 794443), abemaciclib (NSC 768073), sotorasib (NSC818433), adagrasib (NSC 831453), MRTX-1133 (NSC 836407), Iadademestat (ORY1001, NSC 806812), and RMC-4630 (NSC839698), were obtained from the NCI Developmental Therapeutics Program Chemical Repository. The FDA-approved anticancer drug set is available from the Developmental Therapeutics Program at https://dtp.cancer.gov/organization/dscb/obtaining/available plates.htm. […] The stock solutions were prepared in dimethyl sulfoxide (DMSO, Sigma-Aldrich, St. Louis, MO, cat. D2650) at 800-fold the tested concentration and stored at -70 degrees C prior to their use. All drugs and investigational agents were tested over a range starting from a high concentration at or near the clinical Cmax and decreasing in half-log increments. If the clinical Cmax for an agent had not been determined, the highest concentration tested was 10 microM.
The patient-derived cancer (PDC) cell lines include five colon adenocarcinomas: 186277-243-T-J2-PDC, 616215-338-R-J1-PDC, 439559-082-T-J2-PDC, 463943-066-T-J2-PDC, and 519858-162-T-J1-PDC; three pancreatic carcinomas: 323965-272-R-J2-PDC, 521955-158-R6-J3-PDC, and 521955-158-R2-J5-PDC; two uterine sarcomas: 327498-152-R-J2-PDC and 993429-296-R-J1-PDC; two rhabdomyosarcomas: 755483-174-R-J1-PDC and 772245-204-R-J1-PDC; two soft tissue sarcomas: 126254-015-R-J1-PDC and 494315-158-R-J1-PDC; two malignant fibrous histiocytomas: 317291-083-R-J1-PDC and 596521-263-R-J1-PDC; two breast carcinomas: 171881-019-R-J1-PDC and 885512-296-R-J2-PDC; and one ovarian carcinoma: 6556581-035-R-J-PDC were obtained from the NCI PDMR, (https://pdmr.cancer.gov). The established cell lines HSSY-2 synovial sarcoma (RRID:CVCL 8719), SYO-1 synovial sarcoma (RRID:CVCL_7146), MPNST malignant peripheral neural sheath tumor were obtained from the Sloan Kettering Institute. […]
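Note: spheroids exposed to compounds for 7 days.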

For `CNC(C)C(=O)NC1CN(S(=O)(=O)c2cccc(S(=O)(=O)N3CCC4CCC(C(=O)NC(c5ccccc5)c5ccccc5)N4C(=O)C(NC(=O)C(C)NC)C3)c2)CCC2CCC(C(=O)NC(c3ccccc3)c3ccccc3)N2C1=O` (stereo not given), the viability, T/C (compound alone 0.00316 µM) is 92.7, 98.4, 16.4, 80.9, 108, 98%; the viability, T/C (compound alone 0.01 µM) was 86.8, 95.2, 70.1, 83.7, 112, 89.4%; the viability, T/C (compound alone 0.316 µM) is given as 77.6, 90.1, 82.5, 71.3, 104, 91%. For the setting “drug combinations, run of 11/15/2022”, the half-inhibitory concentration (IC50) is < 3.16 nM and > 1 µM.
On to `NC(=O)C(=Cn1cnc(-c2cc(C(F)(F)F)cc(C(F)(F)F)c2)n1)c1cncnc1`, for which the IC50 is listed as 30.6 nM, 37 nM, < 0.949 nM.
